# In the supplement of paper PMC8728848:
# This is one part of the list.
# How the values were obtained:
# Assay in all cases: glycan array binding signal (z-score within array); higher = stronger binding
# Settings in all cases: glycan notation: IUPAC condensed, linker removed
# [1] = target: Gal(b1-4)GlcNAc(b1-2)Man(a1-6)[Man(a1-3)]Man(b1-4)GlcNAc(b1-4)GlcNAc
# Summary of the method: (§1)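 The Consortium for Functional Glycomics database supplied 3228 glycan arrays, of which those lacking an available protein sequence were dropped. The binding signal, a within-array Z-score, was averaged across arrays of the same protein sequence and across linkers. Negative scores can be read as non-binding.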
# [2] = target: Gal(b1-4)GlcNAc(b1-2)[Gal(b1-4)GlcNAc(b1-4)]Man(a1-3)[Gal(b1-4)GlcNAc(b1-2)Man(a1-6)]Man(b1-4)GlcNAc(b1-4)GlcNAc
# Summary of the method: as §1
# [3] = target: Gal(b1-4)GlcNAc(b1-2)[Gal(b1-4)GlcNAc(b1-4)]Man(a1-3)[Gal(b1-4)GlcNAc(b1-2)[Gal(b1-4)GlcNAc(b1-6)]Man(a1-6)]Man(b1-4)GlcNAc(b1-4)GlcNAc
# Summary of the method: as §1
# [4] = target: Gal(b1-4)GlcNAc(b1-2)[Gal(b1-4)GlcNAc(b1-4)]Man(a1-3)[GlcNAc(b1-4)][Gal(b1-4)GlcNAc(b1-2)Man(a1-6)]Man(b1-4)GlcNAc(b1-4)GlcNAc
# Summary of the method: as §1
# [5] = target: Gal(b1-4)GlcNAc(b1-2)[Gal(b1-4)GlcNAc(b1-4)]Man(a1-3)[GlcNAc(b1-4)][Gal(b1-4)GlcNAc(b1-2)[Gal(b1-4)GlcNAc(b1-6)]Man(a1-6)]Man(b1-4)GlcNAc(b1-4)GlcNAc
# Summary of the method: as §1
# [6] = target: Gal(b1-4)GlcNAc(b1-2)[Gal(b1-4)GlcNAc(b1-6)]Man(a1-6)[Gal(b1-4)GlcNAc(b1-2)Man(a1-3)]Man(b1-4)GlcNAc(b1-4)GlcNAc
# Summary of the method: as §1
# [7] = target: Gal(b1-4)GlcNAc(b1-2)[Gal(b1-4)GlcNAc(b1-6)]Man(a1-6)[Gal(b1-4)GlcNAc(b1-2)Man(a1-3)]Man(b1-4)GlcNAc(b1-4)[Fuc(a1-6)]GlcNAc
# Summary of the method: as §1
# [8] = target: Gal(b1-4)GlcNAc(b1-2)[Gal(b1-4)GlcNAc(b1-6)]Man(a1-6)[GlcNAc(b1-4)][Gal(b1-4)GlcNAc(b1-2)Man(a1-3)]Man(b1-4)GlcNAc(b1-4)GlcNAc
# Summary of the method: as §1
# [9] = target: Gal(b1-4)GlcNAc(b1-2)[Gal(b1-4)GlcNAc(b1-6)]Man(a1-6)[GlcNAc(b1-4)][Gal(b1-4)GlcNAc(b1-2)[Gal(b1-4)GlcNAc(b1-4)]Man(a1-3)]Man(b1-4)GlcNAc(b1-4)[Fuc(a1-6)]GlcNAc
# Summary of the method: as §1
# [10] = target: Gal(b1-4)GlcNAc(b1-3)Gal(b1-3)GalNAc
# Summary of the method: as §1
# [11] = target: Gal(b1-4)GlcNAc(b1-3)Gal(b1-3)GlcNAc
# Summary of the method: as §1
# [12] = target: Gal(b1-4)GlcNAc(b1-3)Gal(b1-4)Glc
# Summary of the method: as §1
# [13] = target: Gal(b1-4)GlcNAc(b1-3)Gal(b1-4)GlcNAc
# Summary of the method: as §1
# [14] = target: Gal(b1-4)GlcNAc(b1-3)Gal(b1-4)GlcNAc(b1-2)Man(a1-3)[Gal(b1-4)GlcNAc(b1-3)Gal(b1-4)GlcNAc(b1-2)Man(a1-6)]Man(b1-4)GlcNAc(b1-4)GlcNAc
# Summary of the method: as §1
# [15] = target: Gal(b1-4)GlcNAc(b1-3)Gal(b1-4)GlcNAc(b1-2)Man(a1-3)[Gal(b1-4)GlcNAc(b1-3)Gal(b1-4)GlcNAc(b1-2)Man(a1-6)]Man(b1-4)GlcNAc(b1-4)[Fuc(a1-6)]GlcNAc
# Summary of the method: as §1
# [16] = target: Gal(b1-4)GlcNAc(b1-3)Gal(b1-4)GlcNAc(b1-2)[Gal(b1-4)GlcNAc(b1-3)Gal(b1-4)GlcNAc(b1-6)]Man(a1-6)[Gal(b1-4)GlcNAc(b1-3)Gal(b1-4)GlcNAc(b1-2)Man(a1-3)]Man(b1-4)GlcNAc(b1-4)GlcNAc
# Summary of the method: as §1
# [17] = target: Gal(b1-4)GlcNAc(b1-3)Gal(b1-4)GlcNAc(b1-2)[Gal(b1-4)GlcNAc(b1-3)Gal(b1-4)GlcNAc(b1-6)]Man(a1-6)[Gal(b1-4)GlcNAc(b1-3)Gal(b1-4)GlcNAc(b1-2)Man(a1-3)]Man(b1-4)GlcNAc(b1-4)[Fuc(a1-6)]GlcNAc
# Summary of the method: as §1
# [18] = target: Gal(b1-4)GlcNAc(b1-3)Gal(b1-4)GlcNAc(b1-3)Gal(b1-4)GlcNAc
# Summary of the method: as §1
# [19] = target: Gal(b1-4)GlcNAc(b1-3)Gal(b1-4)GlcNAc(b1-3)Gal(b1-4)GlcNAc(b1-2)Man(a1-3)[Gal(b1-4)GlcNAc(b1-3)Gal(b1-4)GlcNAc(b1-3)Gal(b1-4)GlcNAc(b1-2)Man(a1-6)]Man(b1-4)GlcNAc(b1-4)GlcNAc
# Summary of the method: as §1
# [20] = target: Gal(b1-4)GlcNAc(b1-3)Gal(b1-4)GlcNAc(b1-3)Gal(b1-4)GlcNAc(b1-2)Man(a1-3)[Gal(b1-4)GlcNAc(b1-3)Gal(b1-4)GlcNAc(b1-3)Gal(b1-4)GlcNAc(b1-2)Man(a1-6)]Man(b1-4)GlcNAc(b1-4)[Fuc(a1-6)]GlcNAc
# Summary of the method: as §1
# [21] = target: Gal(b1-4)GlcNAc(b1-3)Gal(b1-4)GlcNAc(b1-3)Gal(b1-4)GlcNAc(b1-2)[Gal(b1-4)GlcNAc(b1-3)Gal(b1-4)GlcNAc(b1-3)Gal(b1-4)GlcNAc(b1-6)]Man(a1-6)[Gal(b1-4)GlcNAc(b1-3)Gal(b1-4)GlcNAc(b1-3)Gal(b1-4)GlcNAc(b1-2)Man(a1-3)]Man(b1-4)GlcNAc(b1-4)[Fuc(a1-6)]GlcNAc
# Summary of the method: as §1
# [22] = target: Gal(b1-4)GlcNAc(b1-3)Gal(b1-4)GlcNAc(b1-3)Gal(b1-4)GlcNAc(b1-3)Gal(b1-4)GlcNAc(b1-2)Man(a1-3)[Gal(b1-4)GlcNAc(b1-3)Gal(b1-4)GlcNAc(b1-3)Gal(b1-4)GlcNAc(b1-3)Gal(b1-4)GlcNAc(b1-2)Man(a1-6)]Man(b1-4)GlcNAc(b1-4)GlcNAc
# Summary of the method: as §1
binder,measurement,setting,value
Pwp4 (Candida glabrata) (protein) MGSSHHHHHHSSGLVPRGSHMASVGNPITVSNVCSFPKNWHRTAGFRALTARLGIGIQSDSYKELLNYPGTFQLTTQQSSTTKPNFQISGLVGNIYGLTIVPSYLLVELTGYFVPPVSGEYTFSLEGSDDAAIIFIANPSTFKCGHVEDWPTAYDNDVTVTESIHATRTIYMIEGVAYPIRIAYYNGLSLGKLQASFTDPEGVKRVDWNGYIWRYDSCDTCSYV,glycan array binding signal (z-score),[1],1.34
same,glycan array binding signal (z-score),[2],0.491
same,glycan array binding signal (z-score),[3],-0.611
same,glycan array binding signal (z-score),[4],-0.523
same,glycan array binding signal (z-score),[5],-0.001
same,glycan array binding signal (z-score),[6],-0.295
same,glycan array binding signal (z-score),[7],0.554
same,glycan array binding signal (z-score),[8],-0.051
same,glycan array binding signal (z-score),[9],-0.565
same,glycan array binding signal (z-score),[10],-0.549
same,glycan array binding signal (z-score),[11],-0.108
same,glycan array binding signal (z-score),[12],-0.365
same,glycan array binding signal (z-score),[13],0.144
same,glycan array binding signal (z-score),[14],0.09
same,glycan array binding signal (z-score),[15],0.584
same,glycan array binding signal (z-score),[16],0.642
same,glycan array binding signal (z-score),[17],2.34
same,glycan array binding signal (z-score),[18],-0.028
same,glycan array binding signal (z-score),[19],1.08
same,glycan array binding signal (z-score),[20],0.226
same,glycan array binding signal (z-score),[21],-0.489
same,glycan array binding signal (z-score),[22],-0.018
